Results from PubChem BioAssay AID1240 (Sanford-Burnham Center for Chemical Genomics, 2008).
In all, about 50,000 compounds went through this assay and about 800 (1.6%) showed an effect of 50% or more. The list shows a part of the results.

target: Bcl-2-like protein 10 (Homo sapiens) (UniProt Q9HD36); assay: TR3 peptide-Bcl-B binding displacers, biochemical primary FP assay, phenotype converters (AID 1240); conditions: GST-Bcl-B / FITC-TR3 peptide fluorescence polarization; stronger effect = higher value; compound at 3.75 mg/L;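 further: 0% = Bcl-B with tracer peptide and DMSO and 100% = tracer peptide lacking Bcl-B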
Chain of UniProt Q9HD36 (Q9HD36 whole entry, looked up): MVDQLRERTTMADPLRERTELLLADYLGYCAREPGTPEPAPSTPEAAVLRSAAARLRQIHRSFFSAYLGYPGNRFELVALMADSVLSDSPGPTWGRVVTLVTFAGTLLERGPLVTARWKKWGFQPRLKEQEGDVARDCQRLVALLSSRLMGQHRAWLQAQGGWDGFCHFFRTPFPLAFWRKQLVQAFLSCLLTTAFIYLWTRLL

| Structure (SMILES) | displacement [%] |
| --- | --- |
| O=C(CCN1C(=O)/C(=C\c2ccc(Cl)cc2)SC1=S)Nc1ccc(C(=O)O)cc1 | -10.5 |
| Cc1ccc(C(=O)C(C(=O)C(=O)Nc2ccccc2)C(c2ccccc2)c2ccccc2)cc1 (stereo not drawn) | 14.7 |
| O=C(COc1ccccc1)Nc1cccc(-c2nc3ccccc3[nH]2)c1 | 15.5 |
| Cc1csc(-c2cc3ccc(OCc4c(F)cccc4Cl)cc3oc2=O)n1 | 9.8 |
| N=c1c2c3c(sc2nc2n1CCCCC2)CCCC3 | -4.8 |
| COc1ccccc1NS(=O)(=O)c1ccc(Cl)c([N+](=O)[O-])c1 | 4.1 |
| N/C(=N\OC(=O)c1cccc(Cl)c1)c1cccnc1 | -10.1 |
| CC1=CCCC(C)(C)C1C(=O)CC(C)Nc1ccccc1 (stereo not drawn) | 9.2 |
| COc1ccccc1C(=O)N1CCN(Cc2cccnc2)CC1 | -19.4 |
| O=S(=O)(CCc1nc2ccccc2o1)c1ccc(Cl)cc1 | 3.8 |
| COc1ccc(/C=N/NS(=O)(=O)c2ccc(Cl)cc2)cc1 | 1.1 |
| O=C(Nc1nc(-c2cccs2)cs1)c1ccc(Cl)cc1Cl | 10.5 |
| Cc1cccc(C(=O)Nc2ccc3nn(-c4ccc(F)cc4)nc3c2)c1 | -27.5 |
| NC(=O)CSc1nc(-c2ccccc2)c(-c2ccccc2)o1 | -7.3 |
| O=C(NCCOC(=O)c1ccc2c(c1)OCO2)c1cccnc1 | 36.4 |
| Cc1cc(Nc2ccccc2)n2c(nc3ccccc32)c1C#N | -2.8 |
| Cc1ccc(-c2ccccc2)n1-c1ccc2c(c1)OCO2 | -4.9 |
| COc1cccc(-c2nc(-c3ccc(Cl)cc3Cl)no2)c1 | 4.5 |
| N/C(=N\OC(=O)c1ccccc1[N+](=O)[O-])c1ccc(Cl)cc1 | -6 |
| O=C(COc1ccc(Cl)cc1Br)NNC(=O)c1ccccc1F | -8.7 |
| COC(=O)CN1C(=O)/C(=C\c2ccc(Cl)cc2)SC1=S | -8 |
| Cc1ccccc1-c1nc2sc3c(c2c(=O)o1)CCCC3 | 11.3 |
| C=CCOc1cccc(/C=N/NC(=O)C(=O)NCc2cccnc2)c1 | 3.8 |

| Structure (SMILES) | displacement [%] |
| --- | --- |
| COc1cc(C(=O)N2CCN(C3CCC(c4ccccc4)CC3)CC2)cc(OC)c1OC (stereo not drawn) | -13.1 |
| CC(=O)C1=C(O)C(=O)N(CC2CCCO2)C1c1ccccc1[N+](=O)[O-] (stereo not drawn) | 6.3 |
| CCOc1ccc(/C=C/C(=O)N(C)Cc2ccccc2)cc1OC | 16.4 |
| CC(=O)n1c2ccccc2c2nc3ccc([N+](=O)[O-])cc3cc21 | 15.4 |
| O=C(O)CCN1C(=O)/C(=C2\C(=O)N(Cc3ccccc3Cl)c3ccccc32)SC1=S | -1.3 |
| O=C(COC(=O)c1ccco1)c1ccc(Cl)cc1 | -1 |
| COc1ccc(CC(C)CC(=O)NCCc2ccc(OC)c(OC)c2)cc1 (stereo not drawn) | 9 |
| CCOC(=O)c1c[nH]c2ccc(Br)cc2c1=O | -10.2 |
| Cc1ccc(Cl)cc1N(Cc1ccc(C(=O)NCc2ccco2)cc1)S(=O)(=O)c1ccccc1 | 0.5 |
| Cc1ccc(C2(CC(=O)O)CCOC(C)(C)C2)cc1 (stereo not drawn) | -6.5 |
| O=C1C2C(c3ccccc3)OC3(C(=O)c4ccccc4C3=O)C2C(=O)N1c1cccc(Cl)c1 (stereo not drawn) | -4.8 |
| Cc1cc(C=C2C(=O)N(C)C(=O)N(C)C2=O)c(C)n1C | 14.1 |
| O=c1[nH]c(=S)[nH]c(O)c1C=Nc1cc(Cl)ccc1O | 3.2 |
| c1ccc(-c2cc(-c3ccccc3)n(-c3ncn[nH]3)n2)cc1 | 7.9 |
| CCOc1ccc(C(=O)Nc2ccc3oc(-c4ccccc4F)nc3c2)cc1Cl | 12.4 |
| CCOc1ccc(NC(=O)CSc2nc3ccccc3[nH]2)cc1 | 11.9 |
| COC(=O)CCC(=O)NNC(=O)c1ccc(Cl)cc1Cl | -14.9 |
| Cc1ccc(C(=O)Nc2ccc(NC(=O)c3ccc(Br)cc3)cc2)cc1 | 10.9 |
| S=c1[nH]nc(-c2ccc(Cl)cc2Cl)n1-c1ccccc1 | -28.5 |
| COC(=O)C(c1ccccc1)c1ccccc1 | 5.8 |
| CC(C)COc1ccc(C(=O)N/C(=C/c2ccc3c(c2)OCO3)C(=O)O)cc1 | -0.6 |
| NNC(=O)COc1ccc(Oc2ccccc2)cc1 | -11.4 |
| Cc1ccsc1/C=C(\C#N)c1nc(-c2cc3cc(Br)ccc3oc2=O)cs1 | -10.8 |

| Structure (SMILES) | displacement [%] |
| --- | --- |
| Cc1ccc2[nH]c(O)c(N=NC(=O)c3cc4ccccc4nc3C)c2c1 | 5.5 |
| N#CCCN(C1CCCCC1)S(=O)(=O)c1ccc(Cl)cc1 | -0.7 |
| O=C(Cc1ccc(F)cc1F)Nc1ccc(I)cc1 | 13.7 |
| O=C1c2ccccc2C(=O)N1CCN1CCc2ccccc21 | -10.4 |
| Cc1ccc(OCC(=O)NCc2ccncc2)c(C)c1 | -4.5 |
| Cc1cc(C)cc(NC(=O)CCC(=O)O)c1 | -13.5 |
| COC(=O)c1ccc(C(=O)OC)c(NC(=O)CN2C(=O)c3ccccc3C2=O)c1 | 6.2 |
| CC1(C)CC(N2CN(C3CC(C)(C)NC(C)(C)C3)CN(C3CC(C)(C)NC(C)(C)C3)C2)CC(C)(C)N1 | 2.8 |
| O=C(N/N=C\c1ccccc1O)c1cncc(Br)c1 | -4.6 |
| COc1c(Cl)ccc(Cl)c1C(=O)Nc1cccc(Br)c1 | -10.4 |
| O=C(Nc1cccnc1)c1cccc(Br)c1 | -6 |
| Cc1ccccc1OCCOc1ccc(/C=C2/SC(=S)N(C)C2=O)cc1 | 0.3 |
| CCOc1ccc(NC(=O)c2cc(-c3ccc(OC)c(OC)c3)nc3ccccc23)cc1 | 48.7 |
| CCCC(=O)c1ccc(N2CCN(C(=O)c3ccccc3F)CC2)c(F)c1 | -11.5 |
| COc1ccc(/C=C2\SC(=S)N(NC(=O)c3ccncc3)C2=O)cc1OC | -13.6 |
| COC(=O)c1ccc(OC)cc1OCCN1CCOCC1 | -14.1 |
| COc1ccc(C2/C(=C(/O)c3ccccc3)C(=O)C(=O)N2c2nc3ccccc3s2)c(OC)c1 (stereo not drawn) | 12.2 |
| O=C(O)CCN1C(=O)/C(=C/C=C/c2ccc([N+](=O)[O-])cc2)SC1=S | 3.2 |
| CC1(C)OC2OC(COC(=O)c3ccccc3)C3OC(C)(C)OC3C2O1 (stereo not drawn) | 14.6 |
| COc1ccc(C2Nc3ccccc3C(=O)N2Cc2ccco2)cc1COc1cccc(C)c1C (stereo not drawn) | 8 |
| O=C(CCC(=O)Nc1ccccc1)N/N=C/c1cccnc1 | 1.7 |
| Cc1cc(O)ccc1N=Cc1ccc(N2CCOCC2)cc1 | -2.8 |
| Cc1ccc(C)c(NC(=O)c2ccc([N+](=O)[O-])cc2)c1 | 11 |

| Structure (SMILES) | displacement [%] |
| --- | --- |
| CN(C)c1cccc(NC(=O)c2cc(F)c(F)cc2Cl)c1 | 8.2 |
| CCOC(=O)C(C(=O)OCC)C(CC(=O)c1ccccc1)c1ccccc1 (stereo not drawn) | 1.1 |
| Cc1csc(NC(=O)c2c(O)c3ccccc3[nH]c2=O)n1 | 2.6 |
| COc1ccc(NC(=O)c2cc(-c3ccc(C)o3)nc3ccccc23)c(OC)c1 | -0.2 |
| COc1ccc(NC(=O)c2sc(N)c(C(=O)OC(C)C)c2C)cc1 | -1.3 |
| COc1ccc(S(=O)(=O)N(CCc2ccccc2)CC(=O)Nc2ccccc2Cl)cc1 | 11.9 |
| NC(=O)C1CCN(C2CC(=O)N(c3cccc(Br)c3)C2=O)CC1 (stereo not drawn) | -0.5 |
| CCOc1cc(OCC)cc(C(=O)Nc2ccc(C(C)CC)cc2)c1 (stereo not drawn) | 11.8 |
| CCCCc1ccc(NC(=O)C2COc3ccccc3O2)cc1 (stereo not drawn) | -0.9 |
| Cc1cc([N+](=O)[O-])ccc1NC(=O)/C=C/c1ccccc1Cl | 8.3 |
| COc1ccccc1-c1n[nH]c(=S)o1 | -0.8 |
| CCOc1cc(/C=C2/SC(=S)N(CC)C2=O)ccc1OCc1ccccc1 | 17.2 |
| COc1ccc(-c2cc(-c3cc(Cl)ccc3O)[nH]n2)cc1 | -7.3 |
| CCCC(=O)Nc1c(C)ccc2nsnc12 | -3.3 |
| Cc1ccc(C(=O)c2coc3ccc(O)c(CN4CCOCC4)c23)cc1 | 0.2 |
| COc1ccc(-c2cc(=O)n(-c3ccc(Oc4ccccc4)c(S(=O)(=O)O)c3)[nH]2)cc1 | 12.8 |
| Cc1ccccc1NC(=O)c1c(N)sc2c1CCCC2 | 12.7 |
| COCP(=O)(c1ccccc1)c1ccccc1 | 12.4 |
| O=[N+]([O-])c1ccc(N2CCN(S(=O)(=O)c3ccccc3)CC2)c(Cl)c1 | 17.6 |
| COc1ccc(/C=C/C(=O)Nc2cccc(C(F)(F)F)c2)cc1Br | 10.4 |
| CCNC(=S)Nc1ccc(C(=O)O)cc1 | -5.4 |
| CC(C)c1ccccc1OCC(=O)Nc1cccc(C(=O)O)c1 | 1.4 |
| CCC(C)NCC(=O)NCCNc1ccc([N+](=O)[O-])cc1Cl (stereo not drawn) | 0.9 |

| Structure (SMILES) | displacement [%] |
| --- | --- |
| Cc1cc(Oc2ccccc2F)c(F)cc1[N+](=O)[O-] | 5.3 |
| CS(=O)(=O)N(CC(=O)Nc1ccc(Br)cc1)c1ccc(Cl)cc1 | 12.1 |
| Cc1cc(C)nc(/N=C(/N)C2=C(O)CC(C)(C)CC2=O)n1 | 9.7 |
| COc1ccc(NS(=O)(=O)c2c(C)cc(C)cc2C)cc1 | -5.7 |
| COc1ccc(NC(=O)CC(c2ccccc2)c2ccccc2)cc1 | 12.2 |
| CCOC(=O)C1=C(C)N=c2s/c(=C\c3ccc(-c4cccc(C(=O)O)c4)o3)c(=O)n2C1c1ccc(OC)c(OC)c1 (stereo not drawn) | -5.6 |
| COc1ccccc1C1SCC(=O)N1c1ccc(Cl)c(Cl)c1 (stereo not drawn) | 9.2 |
| C/C(O)=C(\C#N)P(C)(=O)OCC(C)C (stereo not drawn) | 10.9 |
| CN(C)c1ccc(NC(=S)Nc2ccccc2)cc1 | 6.1 |
| Cc1ccc(N2C(=O)CC(NCc3ccccc3)C2=O)cc1 (stereo not drawn) | -2.6 |
| Cc1c(N(C(=O)c2ccccc2)C(=O)c2ccccc2)c(=O)n(-c2ccccc2)n1C | 14.1 |
| Cc1cccc(OCc2nnc(NC(=O)Nc3ccc(Cl)cc3)s2)c1C | 4.5 |
| O=C(O)c1cc(-c2ccc([N+](=O)[O-])o2)c(Cl)cc1Cl | 16.2 |
| Cc1ccccc1CNC(=O)c1ccc(N(Cc2ccccc2)S(C)(=O)=O)cc1 | -2.8 |
| Cc1cccc(N2C(=O)c3ccc4c5c(ccc(c35)C2=O)CC4)c1C | -12.7 |
| O=C(Nc1ccc(N2CCOCC2)cc1)c1ccc2c(c1)OCO2 | -8.7 |
| O=C(Oc1ccc(NS(=O)(=O)c2ccccc2)cc1)c1ccc(Cl)cc1 | 7.1 |
| CCNC(=O)c1cc(-c2ccc(Cl)s2)nc2ccccc12 | -5.8 |
| O=C(NNC(=O)c1sc2ccccc2c1Cl)Nc1cccc(Cl)c1 | 8.4 |
| CCCCCC1C(CC(=O)OC)CCC1NCCN(C)C (stereo not drawn) | -0.4 |
| O=C1C2CCCC1C(c1ccccc1)NC2c1ccccc1 (stereo not drawn) | 3 |
